Out of some 310,000 compounds screened, about 2,200 (0.71%) showed an effect of 50% or more. Effects have a minus sign here. This is one part of the list.

This test deals with human ether-à-go-go-related gene (hERG) potassium channel (human, UniProt Q12809). As to the kind of experiment: primary screen, population patch clamp on CHO cells stably expressing hERG.
human ether-à-go-go-related gene (hERG) potassium channel, sequence (Q12809 whole entry, looked up): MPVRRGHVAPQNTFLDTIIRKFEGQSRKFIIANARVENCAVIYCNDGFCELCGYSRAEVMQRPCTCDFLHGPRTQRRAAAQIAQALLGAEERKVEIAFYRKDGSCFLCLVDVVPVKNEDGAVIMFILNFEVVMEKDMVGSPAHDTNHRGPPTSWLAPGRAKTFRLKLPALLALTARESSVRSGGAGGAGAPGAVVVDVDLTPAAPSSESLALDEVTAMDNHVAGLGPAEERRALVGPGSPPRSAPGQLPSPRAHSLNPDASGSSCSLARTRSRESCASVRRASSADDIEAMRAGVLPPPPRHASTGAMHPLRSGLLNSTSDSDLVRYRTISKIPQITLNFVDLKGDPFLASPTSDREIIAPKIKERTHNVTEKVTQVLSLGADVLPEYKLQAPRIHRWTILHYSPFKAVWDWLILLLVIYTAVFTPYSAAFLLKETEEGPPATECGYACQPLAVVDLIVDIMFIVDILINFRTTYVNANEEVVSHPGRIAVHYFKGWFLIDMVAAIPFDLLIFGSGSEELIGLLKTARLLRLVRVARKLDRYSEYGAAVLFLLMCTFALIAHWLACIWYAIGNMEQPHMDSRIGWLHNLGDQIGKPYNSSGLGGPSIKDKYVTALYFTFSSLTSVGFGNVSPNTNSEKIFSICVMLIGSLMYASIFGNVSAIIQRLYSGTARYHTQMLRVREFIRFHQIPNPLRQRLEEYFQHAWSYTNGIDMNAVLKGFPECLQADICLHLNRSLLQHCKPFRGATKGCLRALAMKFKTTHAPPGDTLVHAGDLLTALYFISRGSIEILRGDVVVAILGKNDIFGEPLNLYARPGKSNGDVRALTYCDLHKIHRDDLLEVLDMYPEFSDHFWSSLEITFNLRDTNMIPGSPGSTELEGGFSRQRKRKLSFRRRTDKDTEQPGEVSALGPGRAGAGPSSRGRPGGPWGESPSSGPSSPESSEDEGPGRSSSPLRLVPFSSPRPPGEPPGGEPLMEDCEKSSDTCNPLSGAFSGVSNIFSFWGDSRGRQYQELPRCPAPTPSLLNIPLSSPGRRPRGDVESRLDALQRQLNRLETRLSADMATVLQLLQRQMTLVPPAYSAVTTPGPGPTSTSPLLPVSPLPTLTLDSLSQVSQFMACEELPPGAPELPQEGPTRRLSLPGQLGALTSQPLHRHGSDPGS
`CS(=O)(=O)N1CCC(C(=O)Nc2ccccc2Cl)CC1`: the “hERG current change (%, negative = inhibition) at 1uM” value came to 17.3%. For `Cc1ccc2c(c1)N(CC(=O)NCCc1c[nH]c3ccccc13)C(=O)CO2`, the “hERG current change (%, negative = inhibition) at 1uM” value is given as -4.85%.

Take `COc1ccc(Cl)cc1-c1nc(N)nc(NC2CCCCC2)n1`: the “hERG current change (%, negative = inhibition) at 1uM” value was 20.3%. As for `Cc1ccc[n+](CC(=O)c2cc3ccccc3oc2=O)c1.[Br-]`, the “hERG current change (%, negative = inhibition) at 1uM” value is -3.14%. For `CCc1ccc(-c2csc3ncn(CC)c(=O)c23)cc1` the value was 2.91%. The result for `CCOc1ccc(NC(=O)Nc2ccc3c(c2)CCC3)cc1` reads -9.68%. As for `COc1ccc(-c2csc(Nc3ccccc3)[n+]2CC(O)c2ccc([N+](=O)[O-])cc2)cc1.[Br-]` (stereo not shown), the “hERG current change (%, negative = inhibition) at 1uM” value amounted to 15.1%. As to `COc1ccc(C(=O)NCC(c2cccnc2)N2CCN(c3ccccc3OC)CC2)cc1OC` (stereo not shown), the “hERG current change (%, negative = inhibition) at 1uM” value is given as -3.19%. `N#CC1(NC(=O)COC(=O)c2nc(Cl)c(Cl)c(N)c2Cl)CCCCC1`: the “hERG current change (%, negative = inhibition) at 1uM” value is recorded as -4.88%. For `CCOC(=O)C(CC)(CC)C(=O)/C=C/c1cccc(Br)c1` the value was 12.4%; for `CCC(=O)c1c(NC(CC)CO)cc(C)oc1=O` (stereo not shown), -0.845%. The result for `COc1ccc2[nH]c(=O)c(CN(Cc3ccccc3)Cc3nnnn3CC3CCCO3)cc2c1` (stereo not shown) reads -5.15%; that for `CSc1ccccc1NC(=O)Cc1ccccc1`, 7.82%; that for `N=C1S/C(=C\c2cn[nH]c2-c2ccc(F)cc2)C(=O)N1c1ccccc1F`, 6.37%. With `Cc1ccc(C)c(-n2ccnc2SCC(N)=O)c1`, the “hERG current change (%, negative = inhibition) at 1uM” value is 11.4%. For `CCCCN(C)C(=O)c1nc2ccccn2c1CN1CCC[C@H]1CO` the value was 7.66%; for `O=C(COc1ccc(S(=O)(=O)N2CCCC2)cc1Cl)NCc1ccco1`, 7.82%; for `CC(=O)c1c(C)[nH]c(C(=O)COC(=O)c2nccnc2N)c1C`, -0.474%. The result for `O=C(NCCO)c1nc(C(=O)c2ccc(Cl)cc2)c2ccccc2n1` reads 12.4%; that for `C=CCn1c(C(CC(C)C)CC(C)O)n[nH]c1=S` (stereo not shown), 2.61%; that for `Cc1cc2oc3ccc(NCCCN4CCOCC4)cc3c(=O)c2cc1C`, 10.4%.

With `Cc1ccc2nc(Cn3cc(C(F)(F)F)ccc3=O)cc(=O)n2c1`, the “hERG current change (%, negative = inhibition) at 1uM” value came to 1.21%. The result for `O=C1c2cccc(OCC(=O)N3N=C(c4cccs4)CC3c3ccc(F)cc3)c2CCN1Cc1cccnc1` (stereo not shown) reads 2.06%. Regarding `CC(C)(C)n1nc(C2CC2)cc1NC(=O)Nc1ccc(Cl)cc1`, the “hERG current change (%, negative = inhibition) at 1uM” value amounted to 22.3%.

As to `Cc1cc(=O)cc(C)n1-c1ccc(Br)cc1`, the “hERG current change (%, negative = inhibition) at 1uM” value came to 14.4%. For `O=C(Cn1c(=O)cnc2ccccc21)NCC(=O)Nc1ccc(F)c(F)c1` the value was 11.1%; for `COC(=O)c1noc(C)c1-c1ccnn1C(=O)c1ccc(Cl)cc1`, 6.16%; for `COc1ccc(C2c3ccc4ccccc4c3Oc3ncn(CCO)c(=N)c32)cc1` (stereo not shown), -61.7%. The result for `Cc1ccccc1NS(=O)(=O)c1cc(C(=O)NCCC2=CCCCC2)ccc1C` reads -2.3%; that for `NNC(=O)Cn1nc(-c2ccccc2)c2ccccc2c1=O`, 14.6%. For `O=C1C(C2=NC(C(=O)O)C3C(=O)N(c4ccccc4)C(=O)C23)=C(O)c2ccccc21` (stereo not shown), the “hERG current change (%, negative = inhibition) at 1uM” value is given as 0.635%. The result for `Cc1ccc(C)c(CN2C(=O)c3ccccc3S(=O)c3ccc(C(=O)NCCCN4CCCC4)cc32)c1` (stereo not shown) reads 1.58%.

Regarding `O=C(COC(=O)/C=C/c1ccc(C(F)(F)F)cc1)NC(=O)NCc1ccco1`, the “hERG current change (%, negative = inhibition) at 1uM” value is recorded as 14.2%.

In the case of `CC1Oc2ccccc2N(CC(=O)NCCc2ccccc2)C1=O` (stereo not shown), the “hERG current change (%, negative = inhibition) at 1uM” value stood at 11%. For `O=C(Nc1ccc(COc2ccccc2)cc1)c1cccc([N+](=O)[O-])c1` the value was 8.51%. For `Cn1c(CNC(=O)c2ccco2)nnc1SCC(=O)N1CCN(c2ccccc2F)CC1` the value was 14.2%.

As to `O=C(O)c1c2c(nc3ccccc13)/C(=C/c1ccc(O)cc1)CC2`, the “hERG current change (%, negative = inhibition) at 1uM” value amounted to 8.2%. Turning to `O=C1CC(c2ccccc2)CC(=O)N1c1ccc(C(F)(F)F)cc1`, the “hERG current change (%, negative = inhibition) at 1uM” value is 9.63%. The result for `Cc1cc(C(F)(F)F)nn1CC(=O)NNC(=S)Nc1ccc(Cl)cc1` reads 20.1%. For `CC1=C(C(=O)OCc2ccccc2)C(c2ccccc2[N+](=O)[O-])NC(=O)N1C` (stereo not shown) the value was 14.5%; for `Cc1cc2oc(=O)cc(CN(C)Cc3ccccc3Cl)c2cc1C`, 10.2%; for `CC1CCN(S(=O)(=O)c2ccc(NC(=O)CNC3CCCCC3)cc2)CC1`, 12%. For `Cc1cccc2c(N=NC(=O)c3ccc(NS(=O)(=O)c4cccs4)cc3)c(O)[nH]c12` the value was 1.9%; for `CCCCCCCCCc1nc2sc3c(c2c(=O)n1NC(=O)c1ccccc1[N+](=O)[O-])CC(C)(C)OC3`, -3.31%.

Take `CCC(C)c1ccc(NC(=O)c2ccco2)cc1` (stereo not shown): the “hERG current change (%, negative = inhibition) at 1uM” value was 13.2%. For `c1ccc(CSc2ccc(-c3cccnc3)nn2)nc1`, the “hERG current change (%, negative = inhibition) at 1uM” value turned out to be 8.14%. Turning to `CC1(C)C(=O)Nc2ccccc2N1C(=O)CN1C(=O)NC(CCc2ccccc2)C1=O` (stereo not shown), the “hERG current change (%, negative = inhibition) at 1uM” value is recorded as 13.6%. For `CNCC(=O)Nc1ccc(Cl)c(C(F)(F)F)c1`, the “hERG current change (%, negative = inhibition) at 1uM” value was 7.5%. For the compound `C/C(=N\NC(=O)c1ccccc1)c1ccc(N2CCCCC2)cc1`, the “hERG current change (%, negative = inhibition) at 1uM” value was 6.17%.

For the compound `Cc1[nH]c(=S)[nH]c(=O)c1CCCO`, the “hERG current change (%, negative = inhibition) at 1uM” value turned out to be 10.4%.

In the case of `Cc1nc(NC(=O)c2cnccn2)ccc1Br`, the “hERG current change (%, negative = inhibition) at 1uM” value worked out at 12.4%. In the case of `CCc1ccccc1NC(=O)CCC(=O)c1cccs1`, the “hERG current change (%, negative = inhibition) at 1uM” value was found to be 9.05%. With `COCCNS(=O)(=O)c1cc(C)c(C)cc1C`, the “hERG current change (%, negative = inhibition) at 1uM” value amounted to 9.1%. On to `O=C(CSc1ncccn1)N/N=C/c1cccc([N+](=O)[O-])c1`, for which the “hERG current change (%, negative = inhibition) at 1uM” value is given as 1.71%. The result for `Cc1sc2nc(SCc3ccc(C(=O)O)cc3)n(Cc3ccco3)c(=O)c2c1C` reads -10.8%. In the case of `CC1=Nc2cc(C(=O)N3CCC4(CC3)OCCO4)ccc2Sc2ccc(Cl)cc21`, the “hERG current change (%, negative = inhibition) at 1uM” value is listed as 34.4%. Take `Cc1ccc(-c2csc(NC3OC(=O)c4ccccc43)n2)cc1` (stereo not shown): the “hERG current change (%, negative = inhibition) at 1uM” value is given as 12.6%.

As for `O=C(OC1CCOC1=O)c1ccccc1C(=O)c1ccc(Cl)c([N+](=O)[O-])c1` (stereo not shown), the “hERG current change (%, negative = inhibition) at 1uM” value came to 16.7%. For the compound `COC(=O)C1=C(C)NC2=C(C(=O)c3ccccc32)C1c1cccc(OC)c1` (stereo not shown), the “hERG current change (%, negative = inhibition) at 1uM” value turned out to be 6.56%. Take `CSc1ncccc1C(=O)Nc1nc2c(C)cccc2s1`: the “hERG current change (%, negative = inhibition) at 1uM” value worked out at 12.9%. Turning to `Cc1c(C(=O)NCCSCc2c(Cl)cccc2Cl)cccc1[N+](=O)[O-]`, the “hERG current change (%, negative = inhibition) at 1uM” value is on record as 7.12%. In the case of `CN(CCC#N)C(=O)c1cc2c(Cl)nc3ccccc3c2s1`, the “hERG current change (%, negative = inhibition) at 1uM” value is 11.5%.

For `CCOc1ccccc1N1CC(C(=O)Nc2ccc(C(=O)O)cc2)CC1=O` (stereo not shown), the “hERG current change (%, negative = inhibition) at 1uM” value is reported as 11%. The result for `COCCn1nnnc1C(c1ccccc1)N1CCN(C(=O)c2ccco2)CC1.Cl` (stereo not shown) reads 8.84%. `COC(=O)c1cc(-c2ccccc2)nc2nc(SC)[nH]c(=O)c12`: the “hERG current change (%, negative = inhibition) at 1uM” value stood at 11.3%.

As for `Cc1ccc(S(=O)(=O)Nc2ccc(OCC(=O)N3CCOCC3)cc2)c(C)c1NS(C)(=O)=O`, the “hERG current change (%, negative = inhibition) at 1uM” value turned out to be 13.7%.

For the compound `COc1ccccc1NC(=O)CSc1nc2sc(C)c(C)c2c(=O)n1C`, the “hERG current change (%, negative = inhibition) at 1uM” value is 0.91%. For `CN1CCN(C(=S)Nc2ccc(Cl)cc2Cl)CC1` the value was 4.46%; for `O=C(c1ccc(S(=O)(=O)Nc2ccccc2F)cc1)N1CCC1`, 1.03%; for `Cl.O=C1c2cccc3c2[C@H](CCC3)CN1[C@@H]1CN2CCC1CC2`, -21.1%. On to `COc1ccc(S(=O)(=O)CCC(=O)N2CCN(c3ccccc3F)CC2)cc1`, for which the “hERG current change (%, negative = inhibition) at 1uM” value stood at 7.56%.

On to `COc1ccc2c(COC(=O)c3cccc(S(=O)(=O)NCC(C)C)c3)cc(=O)oc2c1`, for which the “hERG current change (%, negative = inhibition) at 1uM” value amounted to 10.6%. The result for `CCOP(=O)(OCC)c1cccc(P(=O)(c2ccccc2)c2ccccc2)c1O` reads 13.2%. `Cc1cccc(C(=O)Nc2cccc(C(=O)NC3CCCC3)c2)c1`: the “hERG current change (%, negative = inhibition) at 1uM” value is on record as -0.37%. The result for `Cc1ccccc1C(=O)Nc1ccccn1` reads 6.21%. Turning to `COc1nc(Nc2ccccc2F)nc(OC)n1`, the “hERG current change (%, negative = inhibition) at 1uM” value came to 1.13%. The result for `CCN(CC)CCCN(Cc1cc2cc(OC)ccc2[nH]c1=O)C(=O)Nc1ccc(F)cc1` reads -47.6%; that for `O=C(COc1ccccc1)NCC(=O)N/N=C/c1ccco1`, 4.57%. Consider `Cc1onc(-c2ccccc2)c1C(=O)Nc1ccc(NC(=O)c2c(-c3ccccc3)noc2C)cc1`, for which the “hERG current change (%, negative = inhibition) at 1uM” value is recorded as 11.6%. Take `COc1cccc(NC(=O)N2CCC(n3nnc4ccccc43)CC2)c1`: the “hERG current change (%, negative = inhibition) at 1uM” value was 2.9%.

In the case of `COC(=O)c1c(NC(=O)COC(=O)CCS(=O)(=O)c2ccc(C)cc2)sc(C)c1C`, the “hERG current change (%, negative = inhibition) at 1uM” value was determined as 8.77%. Take `CCC(C)(C)NC(=O)c1cc(OC)c(OC)cc1[N+](=O)[O-]`: the “hERG current change (%, negative = inhibition) at 1uM” value is 17.2%. The result for `Cl.O=C(Cn1cc(CCO)nn1)N1CCNCC1` reads 3.54%; that for `O=C(CCl)N1CCN(S(=O)(=O)c2ccc3c(c2)CCC3)CC1`, 0.771%; that for `COc1ccc(CCN(Cc2cc3cccc(C)c3[nH]c2=O)C(=O)N2CCCC2)cc1OC`, 0.211%. For the compound `Cc1nn(CC(C)C)c2sc(C(=O)NC3CC(C)(C)NC(C)(C)C3)cc12`, the “hERG current change (%, negative = inhibition) at 1uM” value is reported as 13.7%. For `CSCCC(NS(=O)(=O)c1ccc2c(c1)oc(=O)n2C)C(=O)NC1CCC(C)CC1` (stereo not shown), the “hERG current change (%, negative = inhibition) at 1uM” value turned out to be 5.51%.

Take `Cn1c(=O)cc(OCCCC(=O)NCc2ccccn2)c2ccccc21`: the “hERG current change (%, negative = inhibition) at 1uM” value is listed as 3.38%.

The values are drawn from publication PMC4336329 (PLoS ONE, 2015).
